Measurements published in PubChem BioAssay AID1362 (SRMLSC, 2008).
The other results are listed elsewhere or left out. Further columns of the screen follow, without active or inactive calls. The list favours compounds with an active or inconclusive main result.

test: growth inhibition of WT strain, primary screen, mitochondrial fusion inhibitor project, WT and mutant strains, chemical genetic (AID 1362); details: mitochondrial fusion phenotypic screen, at 10 µM; also: tested in S. cerevisiae

SMILES	inhibition [%]
Cc1cc(O)c(NC(=S)NC(=O)c2ccc(-c3ccc(Cl)cc3)o2)cc1C	57.6
CCC(OC(=O)c1cc2sccc2n1C)C(=O)NCc1ccco1 (centres undefined)	43.8
Cc1cccc2nc(-c3ccccc3)nc(N3CCC(O)(c4ccc(Cl)cc4)CC3)c12	12.4
CCCNC(=O)c1ccc2c(c1)C1C3CCC(C3)C1C(c1ccccc1)N2 (centres undefined)	24.1
Cc1ccc(C(=O)OCCN2CCN(c3ncc(C(F)(F)F)cc3Cl)CC2)cc1	61.5
Cc1cc(C)cc(NC(=S)N(Cc2ccc(Br)cc2)Cc2ccc(C(=O)O)cc2)c1	30.2
COC(=O)CSc1nc(SCc2ccc(C)cc2)nc2c1CCCC2	56.6
CN1C=CC=C/C1=C1\SC(=S)N(c2ccccc2)C1=O	-4.2
O=c1c2ccccc2c(-c2ccc(O)cc2)nn1-c1cccc(C(F)(F)F)c1	81.6
COc1ccc(/C=C/C(=O)N2CCN(c3ccccn3)CC2)c2ccccc12	10.9
O=C(COC(=O)CCCOc1ccc(Cl)cc1Cl)Nc1cccc(Cl)c1	-8.87
COC(=O)C(CC(=O)c1ccc(Cl)cc1)c1ccc(C(C)C)cc1 (centres undefined)	43.6
O=C(NCC(c1ccco1)N1CCCCC1)c1ccc(OCc2ccccc2)cc1 (centres undefined)	63.7
Cc1ccc(Nc2ccc(-n3ccnc3)nn2)cc1C	62.5
O=C1CC(c2cccc(Br)c2)c2cc3c(cc2N1)CCC3 (centres undefined)	64.2
CCCOC(=O)c1ccc(Oc2cn[nH]c2-c2ccc(OC)cc2O)cc1	-18.2
CC(Oc1ccc(Cl)cc1Cl)c1ccnc2nc(N3CCOCC3)nn12 (centres undefined)	45.1
Cc1cccc(N2CCN(C(=O)c3c(C)nn(Cc4ccccc4Cl)c3C)CC2)c1C	11.9
COc1ccc(-c2nc(N)nc(C)c2Oc2ccccc2Br)c(O)c1	80
COc1ccc(-n2cc(-c3ccccc3)c3c(N4CC(C)OC(C)C4)ncnc32)cc1 (centres undefined)	6.04
CC12COC3(C(=O)Nc4ccc5ccccc5c4)CC1CCC32C (centres undefined)	46.8
Nc1ccc2c(c1)C(=O)C(=O)c1ccccc1-2	93.5
CC1CC2=C(NC(=S)NC2c2cccc(F)c2)/C(=C/c2cccc(F)c2)C1 (centres undefined)	-0.58
O=C(C1CCCCC1)N(Cc1ccccc1)c1ccccn1	-9.75
FC(F)Sc1ccc(NC(=S)NCC2CCCCC2)cc1	63.3
COC(=O)c1c(NC(NC(=O)C(C)C)C(Cl)(Cl)Cl)sc2c1CCC2 (centres undefined)	23.4
C[C@H]1CC[C@H]2C(=O)N3[C@H](c4ccccc4Br)[C@@H](C)CC[C@H]3C(=O)N2[C@@H]1c1ccccc1Br	25.4
COc1cccc(-c2nc(-c3ccc(NC(=O)c4cccs4)cc3)no2)c1	-3.65
S=C(Nc1ccc(Oc2ccccc2)cc1)NC1CCCCC1	24.4
